Measured values published in the antibiotic and cytotoxicity screens of Wong et al. (2023).
Some of the results follow.

How the values were obtained:
[1] = system: HSkMC (human skeletal muscle cells); assay: cytotoxicity call (relative viability < 0.9); details: 10 µM
[2] = system: HepG2; assay: cytotoxicity call (relative viability < 0.9); details: 10 µM
[3] = system: S. aureus RN4220; assay: growth inhibition call (relative growth <= 0.2); details: 50 µM

Compound	cytotoxicity call [1]	cytotoxicity call [2]	growth inhibition call [3]
C[C@H](CO)N1C[C@H](C)[C@@H](CN(C)Cc2ccc(-c3ccccc3)cc2)Oc2c(NC(=O)C3CCOCC3)cccc2C1=O	inactive	inactive	inactive
COc1ccc(C(=O)Nc2ccc(CN3C(=O)[C@@]4(O[C@@H](CC(=O)N(CCO)Cc5ccccc5)[C@H]([Si](C)(C)c5ccc(OC)cc5)[C@H]4C)c4ccccc43)cc2)cc1	inactive	inactive	inactive
COCCCNC(=O)[C@@]1(Cc2ccccc2I)c2ccccc2C(=O)N(C2CCCCC2)[C@H]1c1ccc(CO)cc1	inactive	active	inactive
C[C@@H]1CN([C@H](C)CO)C(=O)c2cc(NC(=O)Nc3ccc(C(F)(F)F)cc3)ccc2O[C@@H](C)CCCCO[C@H]1CN(C)C(=O)C1CCCCC1	inactive	inactive	inactive
C[C@@H]1CCCCO[C@@H](CN(C)Cc2ccccc2)[C@H](C)CN([C@@H](C)CO)C(=O)c2cc(NS(=O)(=O)c3ccc(F)cc3)ccc2O1	inactive	inactive	inactive
COC(=O)CCCCCCC(=O)N/N=C/[C@H](O)[C@H](O)[C@@H](O)[C@H](C)O	inactive	inactive	inactive
C[C@@H]1CCCCO[C@H](CN(C)C(=O)c2ccccc2)[C@@H](C)CN([C@@H](C)CO)C(=O)c2cc(NC(=O)Nc3ccc4c(c3)OCO4)ccc2O1	inactive	inactive	inactive
Cc1ccc(S(=O)(=O)Nc2ccc3c(c2)CC(=O)N([C@@H](C)CO)C[C@@H](C)[C@@H](CN(C)C(=O)NC(C)C)O3)cc1	inactive	inactive	inactive
C[C@@H]1CN([C@@H](C)CO)C(=O)c2cc(C#Cc3ccccn3)cnc2O[C@@H]1CN(C)C(=O)c1cnccn1	inactive	inactive	inactive
COc1ccc(NC(=O)Nc2ccc3c(c2)C(=O)N([C@@H](C)CO)C[C@@H](C)[C@H](CN(C)C(=O)Nc2ccc(C(F)(F)F)cc2)OCCCC[C@H](C)O3)cc1	inactive	inactive	inactive
C[C@H](CO)N1C[C@H](C)[C@H](CN(C)S(=O)(=O)c2ccccc2)OCCCC[C@H](C)Oc2ccc(NC(=O)CCC(F)(F)F)cc2C1=O	inactive	inactive	inactive
C[C@H](CO)N1C[C@H](C)[C@H](CN(C)S(=O)(=O)c2cccs2)OCCCC[C@H](C)Oc2ccc(NC(=O)Nc3cccc4ccccc34)cc2C1=O	active	inactive	inactive
CO[C@H]1C[C@@H](O[C@@H]2/C(C)=C/C[C@@H]3C[C@@H](C[C@]4(CC[C@H](C)[C@@H](C5CCCCC5)O4)O3)OC(=O)[C@@H]3C=C(C)/C(=N/O)[C@H]4OC/C(=C\C=C\[C@@H]2C)[C@]43O)O[C@@H](C)[C@@H]1O	inactive	inactive	inactive
C[C@@H]1CCCCO[C@@H](CN(C)C(=O)Nc2ccc3c(c2)OCO3)[C@@H](C)CN([C@H](C)CO)C(=O)c2cc(NC(=O)C3CCCCC3)ccc2O1	inactive	inactive	inactive
C[C@H]1CN([C@@H](C)CO)C(=O)c2cc(NC(=O)Nc3cccc4ccccc34)ccc2O[C@H]1CN(C)Cc1ccc(-c2ccccc2)cc1	inactive	inactive	inactive
COc1cccc(S(=O)(=O)Nc2ccc3c(c2)[C@@H]2C[C@H](CC(=O)NCC(F)(F)F)O[C@H](CO)[C@@H]2O3)c1	inactive	inactive	inactive
Cc1ccc(S(=O)(=O)N(C)C[C@@H]2Oc3ccc(NC(=O)Nc4cccc5ccccc45)cc3CC(=O)N([C@H](C)CO)C[C@@H]2C)cc1	inactive	active	inactive
C[C@H]1CN([C@@H](C)CO)C(=O)c2cc(NC(=O)CCC(F)(F)F)ccc2O[C@H]1CN(C)Cc1ccc(C(=O)Nc2ccccc2N)cc1	inactive	inactive	inactive
C[C@@H](Nc1nc(=O)cc(F)[nH]1)C(=O)O	inactive	inactive	inactive
COc1ccccc1C(=O)Nc1ccc2c(c1)C(=O)N(C)[C@@H]1CC[C@H](CC(=O)NCc3ccc(Cl)c(Cl)c3)O[C@@H]1CO2	inactive	inactive	inactive
C[C@H](CO)N1C[C@H](C)[C@@H](CN(C)C(=O)Nc2ccc(F)cc2)Oc2c(NC(=O)Nc3cccc4ccccc34)cccc2C1=O	inactive	inactive	inactive
COc1ccc(C#Cc2ccc3c(c2)O[C@H](CN(C)C(=O)CN2CCOCC2)[C@@H](C)CN([C@H](C)CO)S3(=O)=O)cc1	inactive	inactive	inactive
O=C(CN1CCOCC1)NCC[C@H]1CC[C@@H](NC(=O)Nc2ccccc2)[C@@H](CO)O1	inactive	inactive	inactive
C[C@@H]1CN([C@@H](C)CO)C(=O)c2cc(NC(=O)CCCN(C)C)ccc2O[C@H]1CN(C)S(=O)(=O)c1cn(C)cn1	inactive	inactive	inactive
CC(C)NC(=O)Nc1ccc2c(c1)CC(=O)N([C@@H](C)CO)C[C@@H](C)[C@@H](CN(C)S(=O)(=O)c1ccc(Cl)cc1)O2	inactive	inactive	inactive
C[C@H](CO)N1C[C@H](C)[C@H](CN(C)S(=O)(=O)c2cn(C)cn2)Oc2c(NS(=O)(=O)c3ccc(Cl)cc3)cccc2C1=O	inactive	inactive	inactive
CC1(C)OC(=O)NC1=O	inactive	inactive	inactive

Compound	cytotoxicity call [1]	cytotoxicity call [2]	growth inhibition call [3]
CO[C@@H]1CC[C@@H]2[C@H]1OCCN2C(=O)N(C)C	inactive	inactive	inactive
COCC#Cc1ccc2c(c1)O[C@H](CN(C)C(=O)c1ccccc1)[C@@H](C)CN([C@@H](C)CO)S2(=O)=O	inactive	inactive	inactive
CC(=O)NCC(=O)N1CCC2(CC1)CN(c1cnn(C)c1)C(=O)CO2	inactive	inactive	inactive
C[C@@H]1CN([C@@H](C)CO)C(=O)c2cccc(NS(=O)(=O)c3ccc(F)cc3)c2O[C@@H]1CN(C)C(=O)Nc1ccc(C(F)(F)F)cc1	inactive	active	inactive
COc1ccc(C[C@H](NC(=O)[C@H](C)NC(=O)CN2CCOCC2)C(=O)N[C@@H](Cc2ccccc2)C(=O)[C@@]2(C)CO2)cc1	active	active	inactive
COc1ccc(NC(=O)Nc2ccc3c(c2)C(=O)N([C@H](C)CO)C[C@H](C)[C@H](CN(C)C(=O)Nc2ccc4c(c2)OCO4)OCCCC[C@@H](C)O3)cc1	inactive	inactive	inactive
C[C@@H]1CN([C@@H](C)CO)C(=O)c2cc(NC(=O)Cn3cnnn3)ccc2O[C@H]1CN(C)Cc1ccc(Oc2ccccc2)cc1	inactive	inactive	inactive
C[C@@H]1CN([C@@H](C)CO)S(=O)(=O)c2ccc(C#Cc3ccc(F)cc3)cc2O[C@@H]1CN(C)C(=O)c1ccccn1	inactive	inactive	inactive
COc1ccc(CN(C)C[C@@H]2Oc3ccc(NS(C)(=O)=O)cc3CC(=O)N([C@@H](C)CO)C[C@@H]2C)cc1	inactive	inactive	inactive
COc1cc(N2CCC(N)CC2)ccc1Nc1ncc(Cl)c(-c2c[nH]c3ccccc23)n1	active	active	active
COC(=O)C[C@H]1CC[C@H]2[C@@H](COC[C@H](O)CN2S(=O)(=O)c2cn(C)cn2)O1	inactive	inactive	inactive
C[C@H](O)C#Cc1ccc2c(c1)O[C@H](CN(C)C(=O)c1ccccc1)[C@H](C)CN([C@H](C)CO)S2(=O)=O	inactive	inactive	inactive
COc1ccsc1CN	inactive	inactive	inactive
COC[C@H]1CNN1C(=O)Nc1c(C)noc1C	inactive	inactive	inactive
C[C@H](CO)N1C[C@H](C)[C@@H](CN(C)Cc2ccncc2)Oc2c(NC(=O)Nc3ccc(C(F)(F)F)cc3)cccc2C1=O	inactive	inactive	inactive
CO[C@H]1CN(C)C(=O)c2cc(NC(C)=O)ccc2OC[C@@H](C)N(S(=O)(=O)c2cn(C)cn2)C[C@@H]1C	inactive	inactive	inactive
C[C@@H]1CN([C@H](C)CO)C(=O)c2cccc(NC(=O)C3CCOCC3)c2O[C@@H]1CN(C)Cc1ccc(-c2ccccc2)cc1	inactive	inactive	inactive
C[C@H](CO)N1C[C@H](C)[C@@H](CN(C)S(=O)(=O)c2ccccc2)Oc2ccc(NS(=O)(=O)c3cccs3)cc2C1=O	inactive	inactive	inactive
COc1ccc(S(=O)(=O)Nc2cccc3c2O[C@@H](CN(C)S(=O)(=O)c2ccc(F)cc2)[C@H](C)CN([C@H](C)CO)C3=O)cc1	inactive	inactive	inactive
C[C@@H]1CN([C@@H](C)CO)C(=O)c2cc(NC(=O)CCC(F)(F)F)ccc2O[C@@H](C)CCCCO[C@H]1CN(C)C(=O)C1CCCCC1	inactive	inactive	inactive
O=c1[nH]c2ccc(F)cc2[nH]1	inactive	inactive	inactive
C[C@@H]1CN([C@@H](C)CO)S(=O)(=O)c2ccc(-c3cncnc3)cc2O[C@H]1CN(C)C(=O)Cc1cccnc1	inactive	inactive	inactive
C[C@H](O)C#Cc1ccc2c(c1)O[C@H](CN(C)C(=O)CN(C)C)[C@H](C)CN([C@H](C)CO)S2(=O)=O	inactive	inactive	inactive
COc1ccc(CN(C)C[C@H]2Oc3ccc(NS(=O)(=O)c4c(C)noc4C)cc3C(=O)N([C@H](C)CO)C[C@@H]2C)cc1	inactive	inactive	inactive
C[C@H](CO)N1C[C@H](C)[C@@H](CN(C)Cc2ccc(C(=O)O)cc2)Oc2ccc(NC(=O)Nc3ccc(C(F)(F)F)cc3)cc2CC1=O	inactive	inactive	inactive
C[C@@H]1CN([C@@H](C)CO)C(=O)c2cc(NC(=O)Nc3ccc(C(F)(F)F)cc3)ccc2O[C@@H](C)CCCCO[C@H]1CN(C)C(=O)Nc1cccc2ccccc12	inactive	inactive	inactive
